# Data reported in PubChem BioAssay AID2147 (National Center for Advancing Translational Sciences (NCATS), 2009).
# Screen size: about 230,000 compounds; about 3,600 (1.6%) were called active. Inconclusive results, whose numbers are uncertain, are shown with a selection of clear calls. Calls follow the shape of the dose curve; as a rule, active = well fitted inhibition curve with a large enough effect (not every such curve was filed as active); inconclusive = small, poorly fitted or top-dose-only effect, or another doubt; inactive = no such curve, though single readings can be large or run the other way. Potencies beside an inconclusive call are fits to weak or partial responses and may not hold up.
# Target: Lysine-specific demethylase 4E (Homo sapiens) (UniProt B2RXH2)
# Assay: qHTS Assay for Inhibitors of Human Jumonji Domain Containing 2E (JMJD2E)
# Conditions: JMJD2E catalytic domain, FDH-coupled NADH fluorescence (FDH is formaldehyde dehydrogenase); series mostly up to 57.1 µM; activity change, negative = inhibition: at the top concentration
# Also: nearly all actives have a fitted effect of over 50% in size.
# 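For activity change, negative = inhibition in this document: 0% = wells with enzyme and -100% = buffer wells without enzyme.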
# Potency is read from the fitted curve at half-maximal effect; tags tell the direction and shape of the fitted curve.
# Chain of UniProt B2RXH2 (B2RXH2 whole entry, looked up, the tested form may be a part): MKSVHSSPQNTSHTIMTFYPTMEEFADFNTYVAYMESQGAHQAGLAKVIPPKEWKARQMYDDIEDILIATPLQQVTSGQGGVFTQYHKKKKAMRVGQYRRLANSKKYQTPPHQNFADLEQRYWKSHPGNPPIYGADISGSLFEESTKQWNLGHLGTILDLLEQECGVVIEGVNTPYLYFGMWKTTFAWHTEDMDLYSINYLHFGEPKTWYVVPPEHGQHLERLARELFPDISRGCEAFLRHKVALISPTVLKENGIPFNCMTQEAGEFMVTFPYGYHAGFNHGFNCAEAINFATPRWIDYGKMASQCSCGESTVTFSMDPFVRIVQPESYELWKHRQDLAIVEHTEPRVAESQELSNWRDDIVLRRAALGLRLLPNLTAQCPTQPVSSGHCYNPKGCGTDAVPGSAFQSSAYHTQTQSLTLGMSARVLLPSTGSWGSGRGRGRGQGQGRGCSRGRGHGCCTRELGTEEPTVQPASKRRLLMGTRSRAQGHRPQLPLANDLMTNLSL
SMILES,"activity change, negative = inhibition",Potency
O=C(COC(=O)c1ccccc1C(=O)c1ccc(Cl)c([N+](=O)[O-])c1)NC1CCCCCC1,inactive: 8.92%,
c1ccc(-c2ccc(-c3nc(-c4cccnc4)no3)cc2)cc1,,"inconclusive: 35.5 µM [inhibitor, partial curve]"
COc1cc(C)c(NC(=S)Nc2ccc(Cl)c(Cl)c2)cc1OC,inactive: -2.48%,
Nc1nc2c(c(=O)[nH]1)N=C(CNc1ccc(C(=O)NC(CCC(=O)O)C(=O)O)cc1)CN2 (stereo unspecified),,"inconclusive: 35.5 µM [inhibitor, partial curve]"
CCN(CC)CCCN(Cc1cc2cc3c(cc2[nH]c1=O)OCO3)C(=S)Nc1ccccc1,,"inconclusive: 28.2 µM [inhibitor, partial curve]"
Cc1ccc(C(=O)COC(=O)c2ccc(-c3cnc4ccccc4n3)cc2)cc1C,,"inconclusive: 39.8 µM [inhibitor, single point]"
CCOC(=O)c1ccc(NC(=O)CSc2nnc(CNc3ccc(OC)cc3)n2C)cc1,,"inconclusive: 31.6 µM [inhibitor, single point]"
O=C(O)CC/C=C\C[C@@H]1CO[C@H](c2ccccc2Cl)O[C@@H]1c1ccccc1O,inactive: 1.18%,
COc1ccccc1C1=NNC(=Nc2cccc(S(=O)(=O)N(C)C)c2)SC1,,"inconclusive: 39.8 µM [inhibitor, single point]"
CCOc1ccc(CNC2CCCc3ccccc32)cc1 (stereo unspecified),,"inconclusive: 31.6 µM [inhibitor, single point]"
Cn1cc(-c2nnc(-c3ccccc3)o2)c2ccccc21,,"inconclusive: 3.16 µM [inhibitor, full curve]"
COc1ccccc1NS(=O)(=O)c1ccc(O)c(C(=O)OCC(=O)N2CCc3ccccc32)c1,,"inconclusive: 20 µM [inhibitor, partial curve]"
COc1ccc(/C(C)=N/OCC(=O)Nc2nc3ccccc3s2)cc1OC,,"inconclusive: 35.5 µM [inhibitor, single point]"
COc1cc(/C=N/NC(=O)C[n+]2ccccc2)cc(OC)c1OC(C)=O,inactive: 13.2%,
COc1ccccc1NC(=O)CN1CCN(c2ccccc2OC)CC1,inactive: -8.9%,
COc1ccc(CC(=O)Nc2nc(C)cs2)cc1OC,,"inconclusive: 39.8 µM [inhibitor, single point]"
CCCCN(C)C(=O)CCC(=O)Nc1ccc2nc(N3CCN(C)CC3)cc(C)c2c1,,"inconclusive: 22.4 µM [inhibitor, partial curve]"
Cc1c(OC(=O)CNC(=O)OC(C)(C)C)ccc2c3c(c(=O)oc12)CCC3,,"inconclusive: 6.31 µM [inhibitor, single point]"
O=c1[nH]c2ccccc2[n+]([O-])c1-c1ccccc1,,"inconclusive: 35.5 µM [inhibitor, partial curve]"
COCCn1c(=O)[nH]c2cc(C(=O)NCCc3ccc(S(N)(=O)=O)cc3)ccc2c1=O,,"inconclusive: 31.6 µM [inhibitor, single point]"
COc1ccc(S(=O)(=O)N(CCCN2CCCC2=O)Cc2cc3cc(C)c(C)cc3[nH]c2=O)cc1,,"inconclusive: 35.5 µM [inhibitor, single point]"
Fc1ccc(CN2CCSCC2)cc1Br,,"inconclusive: 39.8 µM [inhibitor, single point]"
CCOC(=O)C(C)Sc1nc2c(c(=O)[nH]c(=O)n2C)n1CCc1ccccc1 (stereo unspecified),inactive: -1.57%,
Clc1ccc(-n2ncc3c(NCc4ccc5c(c4)OCO5)ncnc32)cc1,,"inconclusive: 35.5 µM [inhibitor, single point]"

SMILES,"activity change, negative = inhibition",Potency
CCCn1c(SCC(=O)N2c3ccccc3CC2C)nnc1-c1ccco1 (stereo unspecified),inactive: -0.67%,
O=C(OCc1cc2ccccc2[nH]c1=O)C1CCCCC1,inactive: -12.2%,
COc1ccc(CC(NC(C)=O)C(=O)NC2CCN(c3nc(C)cc(C)c3C#N)CC2)cc1OC (stereo unspecified),,"inconclusive: 28.2 µM [inhibitor, partial curve]"
O=C(c1ccc(=O)[nH]n1)N1CCc2ccccc2C1,inactive: 2.45%,
Cc1ccc(NCCC(=O)c2cccs2)cc1C,inactive: -4.56%,
O=[N+]([O-])c1cc(/C=N\Nc2nccs2)ccc1O,,"inconclusive: 28.2 µM [inhibitor, single point]"
CCC(=O)N(Cc1cc(=O)[nH]c2ccccc12)c1ccc(C)cc1,inactive: -29%,
CNC(=S)N1N=C(c2ccc(C)cc2)CC1c1ccc(N(C)C)cc1 (stereo unspecified),inactive: -5.53%,
Cc1cnc(C(=O)Nc2ccc(C)c(S(=O)(=O)N(C)C)c2)cn1,inactive: -2.72%,
O=C(Cn1c2ccccc2c(=O)c2ccccc21)Nc1cccc(F)c1,,"inconclusive: 12.6 µM [inhibitor, partial curve]"
CCOc1cc(C(=O)Nc2ccc3c4c(cccc24)C(=O)N3CC)cc(OCC)c1OCC,inactive: 7.56%,
Cc1ccc2nc(C)cc(C(=O)OCC(=O)Nc3c(C)n(C)n(-c4ccccc4)c3=O)c2c1,,"inconclusive: 28.2 µM [inhibitor, partial curve]"
COC(=O)c1cc2c(C)nn(-c3ccccc3)c2s1,,"inconclusive: 28.2 µM [inhibitor, partial curve]"
CCn1c(=O)c(C(=O)Nc2ncccc2C)c(O)c2ccccc21,,"inconclusive: 28.2 µM [inhibitor, single point]"
Cc1[nH]nc(Nc2ccc(C(C)C)cc2)c1[N+](=O)[O-],inactive: 9.97%,
COc1cccc(C2=NOC(C(=O)Nc3ccc(OC)c(OC)c3)C2)c1 (stereo unspecified),inactive: -3.81%,
Nc1c(C(=O)NCCN2CCOCC2)c2nc3ccccc3nc2n1CCc1ccccc1,,"inconclusive: 28.2 µM [inhibitor, partial curve]"
O=S(=O)(NC1CCCC1)c1cccc(-c2nnc(-c3ccccc3)o2)c1,,"inconclusive: 28.2 µM [inhibitor, single point]"
O=C(Oc1cccc(NC(=O)c2ccco2)c1)c1ccc(Br)c(S(=O)(=O)N2CCCCC2)c1,inactive: -1.25%,
O=c1c2ccccc2sn1-c1ccccc1,,active: 25.1 µM
Cc1cccc(C)c1NC(=O)COC(=O)C1CC(=O)N(Cc2ccccc2)C1 (stereo unspecified),inactive: -6.52%,
CNc1ccccc(-c2ccc3cc4c(cc3n2)OCO4)c1=O,,"inconclusive: 10 µM [inhibitor, partial curve]"
Cc1nc(-c2ccccc2)cn2c1nc1ccccc12,,"inconclusive: 31.6 µM [inhibitor, partial curve]"
Nc1ccc2c(c1)Cc1cc([N+](=O)[O-])ccc1-2,inactive: 6.19%,

SMILES,"activity change, negative = inhibition",Potency
CCC1(CC)Nc2ccccc2C(=O)N1c1ccc(NC(C)=O)cc1,,"inconclusive: 28.2 µM [inhibitor, partial curve]"
O=C(CCC1CCCN(c2ncccn2)C1)N1CCN(c2ccccn2)CC1 (stereo unspecified),,"inconclusive: 31.6 µM [inhibitor, single point]"
CN(C)S(=O)(=O)c1cccc(C(=O)OCC(=O)Nc2sccc2C#N)c1,inactive: 1.37%,
O=C(CCn1[nH]c(=O)c2ccccc2c1=O)OC1CCCCC1,,"inconclusive: 39.8 µM [inhibitor, single point]"
COC(=O)CCCC1=CC2=C(c3ccccc3)C(=O)C(C)(OC(=O)C3CCCC3)C(=O)C2=CN1C1CCCC1 (stereo unspecified),inactive: -11.7%,
Cc1ccc(N2C(=O)C(Cl)=C(NCCO)C2=O)c(C)c1,,"inconclusive: 39.8 µM [inhibitor, single point]"
CC(=O)NC1C(=O)N=C(SCC(=O)Nc2c(C)cccc2C)NC1=O (stereo unspecified),inactive: -0.0738%,
CN(C)c1ccc(C(=S)N2CCN(C(=S)Nc3ccccc3)CC2)cc1,inactive: 5.48%,
O=C(CNCc1ccccc1Cl)Nc1ccccc1N1CCCCC1,,"inconclusive: 31.6 µM [inhibitor, single point]"
Cc1ccc(C(=O)CSc2nc3ccccc3c(=O)n2N)o1,,"inconclusive: 28.2 µM [inhibitor, single point]"
CCN(CC(=O)Nc1ccccc1C(=O)OC)S(=O)(=O)c1ccc(OC)cc1,,"inconclusive: 28.2 µM [inhibitor, single point]"
O=C(c1ccccc1F)N1CCN(c2cnn(-c3cccc(Cl)c3)c(=O)c2Cl)CC1,,"inconclusive: 39.8 µM [inhibitor, single point]"
O=C(O)CCc1ccc(-c2ccc(F)cc2)n1CCC(=O)O,,"inconclusive: 25.1 µM [inhibitor, partial curve]"
Cc1cc(C)c2sc(NNC(=O)c3ccc(S(=O)(=O)N4CCc5ccccc5C4)cc3)nc2c1,,active: 12.6 µM
CCOC(=O)C1=C(C)Nc2ccccc2N=C1NC(=O)/C=C/c1ccc(OC)cc1OC,,"inconclusive: 35.5 µM [inhibitor, single point]"
Nc1ncnc2c1ncn2[C@@H]1O[C@H](COP(=O)(O)OP(=O)(O)OP(=O)(O)OP(=O)(O)OC[C@@H]2O[C@H](n3cnc4c(N)ncnc43)[C@@H](O)[C@@H]2O)[C@H](O)[C@H]1O,,"inconclusive: 39.8 µM [inhibitor, single point]"
O=C(NNC1OC(CO)C(O)C(O)C1O)c1cccc(Br)c1 (stereo unspecified),inactive: 38.4%,
O=C(Oc1c(CN2CCOCC2)cc(Cl)c2cccnc12)c1ccccc1F,,active: 31.6 µM
CCSc1nnc(NC(=O)CSc2nc3c(c(=O)n2-c2ccccc2OC)SCC3)s1,,"inconclusive: 39.8 µM [inhibitor, single point]"
CCOc1ccc(-c2[nH]ncc2Oc2cccc(OC)c2)c(O)c1,inactive: -8.15%,
COC(=O)C1=C(C)N(c2ccccc2)C(=S)NC1c1ccccc1C(F)(F)F (stereo unspecified),inactive: -20.6%,
COc1ccc(/C=N\NC(=O)c2cc(O)c(O)c(O)c2)cc1CN1CCN(c2ccc(F)cc2)CC1,,active: 3.98 µM
Cc1onc(-c2ccccc2Cl)c1C(=O)Nc1ccc(-c2cn3cccnc3n2)cc1,,"inconclusive: 31.6 µM [inhibitor, partial curve]"
